# Paper PMC4336329 (PLoS ONE, 2015)
# In all, about 310,000 compounds went through this assay and about 14,000 (4.5%) showed an effect of 50% or more. The effect is printed as a negative number. The list shows a part of the results.
# Molecular target: human ether-à-go-go-related gene (hERG) potassium channel (human, UniProt Q12809)
# Experiment: primary screen, population patch clamp on CHO cells stably expressing hERG
# 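Further: peak tail current of the secondary pulse compared with the same well before compound.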
# Chain of human ether-à-go-go-related gene (hERG) potassium channel (Q12809 whole entry, looked up): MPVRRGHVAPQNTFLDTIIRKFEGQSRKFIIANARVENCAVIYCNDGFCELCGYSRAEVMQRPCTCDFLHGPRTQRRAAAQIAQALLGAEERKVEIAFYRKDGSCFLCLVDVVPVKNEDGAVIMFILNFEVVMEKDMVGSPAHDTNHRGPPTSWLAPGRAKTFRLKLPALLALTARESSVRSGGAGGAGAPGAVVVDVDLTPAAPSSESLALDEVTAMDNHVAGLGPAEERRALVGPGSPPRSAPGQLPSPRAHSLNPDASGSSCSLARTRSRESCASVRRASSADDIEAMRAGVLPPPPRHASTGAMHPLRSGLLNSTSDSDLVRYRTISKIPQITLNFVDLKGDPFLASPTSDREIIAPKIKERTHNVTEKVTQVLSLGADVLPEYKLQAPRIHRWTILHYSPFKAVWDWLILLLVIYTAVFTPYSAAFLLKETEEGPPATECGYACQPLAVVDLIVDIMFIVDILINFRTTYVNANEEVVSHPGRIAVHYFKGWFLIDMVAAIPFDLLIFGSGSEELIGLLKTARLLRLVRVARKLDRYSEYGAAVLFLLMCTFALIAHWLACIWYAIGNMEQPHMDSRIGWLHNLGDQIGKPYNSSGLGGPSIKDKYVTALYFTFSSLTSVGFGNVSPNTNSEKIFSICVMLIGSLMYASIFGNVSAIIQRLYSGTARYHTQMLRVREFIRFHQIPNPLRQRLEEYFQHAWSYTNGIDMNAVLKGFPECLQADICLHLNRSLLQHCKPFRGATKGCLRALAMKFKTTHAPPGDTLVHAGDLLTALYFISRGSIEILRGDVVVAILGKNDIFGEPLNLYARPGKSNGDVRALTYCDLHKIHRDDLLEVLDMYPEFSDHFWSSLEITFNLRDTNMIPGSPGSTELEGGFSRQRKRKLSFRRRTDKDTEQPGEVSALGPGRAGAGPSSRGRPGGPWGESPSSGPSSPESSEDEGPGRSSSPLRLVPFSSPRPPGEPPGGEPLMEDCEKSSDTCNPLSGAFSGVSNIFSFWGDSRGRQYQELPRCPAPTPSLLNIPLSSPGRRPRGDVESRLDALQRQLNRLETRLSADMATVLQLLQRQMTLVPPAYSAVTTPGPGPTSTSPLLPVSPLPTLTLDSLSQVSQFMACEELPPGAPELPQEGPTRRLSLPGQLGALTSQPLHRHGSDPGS
row,SMILES,"hERG current change (%, negative = inhibition) at 10uM [%]"
1,Nc1ccc2oc(C3CCCCC3)nc2c1,6.72
2,COc1ccccc1OCC(=O)OCC(=O)Nc1ncc(Cl)cc1Cl,12.8
3,Cc1cc(N=CC2=C(O)CC(C)(C)CC2=O)no1,-14.5
4,CCOC(=O)CCc1c(C)nc2cc(-c3ccccc3OC)[nH]n2c1=O,3.82
5,COC(=O)C(=NNc1c(C)n(C)n(-c2ccccc2)c1=O)C(=O)OC,9.93
6,CCc1nc(SCC(=O)N2CC(=O)Nc3ccccc32)c2c(C)c(C)sc2n1,18.3
7,O=C(NCCC1=CCCCC1)c1ccc([N+](=O)[O-])cc1,-14.9
8,CC(C)CC1C(C#N)=C(N)Oc2c1c(=O)oc1ccccc21 (centres unmarked),8.62
9,CC12CC(NC(=O)N1c1cccc(C(=O)NCc3ccc4c(c3)OCO4)c1)c1cc(Cl)ccc1O2 (centres unmarked),-11.1
10,O=C(O)CC(Cc1ccccc1)C(=O)NCC12CC3CC(CC(C3)C1)C2 (centres unmarked),8.26
11,COc1cc(OC)c(C(=O)Nc2cccc(C(C)=O)c2)cc1OC,-9.08
12,C=C1SC(=Nc2c(C)cccc2Cl)N(C(=O)c2sc3ccccc3c2Cl)C12CCCCC2,25.8
13,Cc1ccc2nc(SCC(=O)c3c(C)[nH]c4ccccc34)[nH]c2c1,22.2
14,COc1ccc(COC(=O)c2cccc(S(=O)(=O)N3CCCC3)c2)cc1F,4.43
15,O=C(COc1ccc(Cl)cc1)Nc1ccc(Cl)cn1,-4.59
16,O=C(CSc1nc2ncccc2[nH]1)c1ccc(F)cc1,4.57
17,O=C(c1cc(=O)c2ccccc2o1)N1CCN(c2ccccc2F)CC1,-15.3
18,Cc1ccc(S(=O)(=O)NNC(=O)c2cccnc2)cc1,13.1
19,COC(=O)c1c(C)oc2c1cc(NS(=O)(=O)c1ccc(C(=O)O)cc1)c1ccccc12,7.86
20,COc1ccc(CCC(=O)NCc2ccccc2Cl)cc1OC,15
21,Cc1cc(C)cc(N(CC(=O)NC2CCC(C)CC2)S(=O)(=O)c2c(C)[nH]c(=O)[nH]c2=O)c1 (centres unmarked),14.4
22,COc1ccc(S(=O)(=O)Cc2ccc(C(=O)NCCc3ccc(S(N)(=O)=O)cc3)o2)cc1,10.1

row,SMILES,"hERG current change (%, negative = inhibition) at 10uM [%]"
1,CC(Oc1ccccc1)C(=O)N=Nc1c(O)[nH]c2ccc(Br)cc12 (centres unmarked),34.1
2,Cc1ccc(-c2nn(CCC(N)=O)c(=O)c3ccccc23)cc1,-18.6
3,COC(=O)/C=C1\NCCNC1=O,7.37
4,Cc1nnc(SCC(=O)Nc2ccc([N+](=O)[O-])cc2)n1C,2.98
5,C/C(=N\NC(=O)c1cc(-c2cccc([N+](=O)[O-])c2)n[nH]1)c1ccc(F)cc1,8.28
6,CCOC(=O)c1cc(-c2ccc(OC)cc2)nc2c1c(C)nn2CCC#N,-9.41
7,O=C(NCCC1=CCCCC1)C(c1ccccc1)c1ccccc1,8.52
8,CCCCn1c(N)c(N(CC(C)C)C(=O)C2CCN(S(=O)(=O)c3ccc(C)c(C)c3)CC2)c(=O)[nH]c1=O,-3.22
9,CC(C)c1cccc(C(C)C)c1NC(=O)COC(=O)c1ccc(OCC(=O)Nc2cccc(C(F)(F)F)c2)cc1,11.7
10,CC1CCC2(CC1)NC(=O)N(CC(=O)Nc1ccccc1-c1ccccc1)C2=O (centres unmarked),-21.4
11,O=C(CSc1nnc2ncccn12)N1CCCCCC1,6.85
12,CC(Cl)C(=O)c1ccc2c(c1)CCN2C(=O)C1CC1 (centres unmarked),-2.76
13,CC(=O)C1=C(O)C(=O)N(c2cccnc2)C1c1cccc([N+](=O)[O-])c1 (centres unmarked),-8.52
14,C=CCN(CC=C)C(=S)NC(=O)c1ccc(OC)c(Br)c1,5.1
15,CSC1=NCCN1C(=O)c1ccc(S(=O)(=O)N(C)C)cc1,4.69
16,CCCCNC(=S)N/N=C/C1=CCC2CC1C2(C)C (centres unmarked),14
17,CCOc1cccc(CNc2ccc(O)cc2)c1OCc1ccccc1Cl,10.8
18,CSc1ncc(Cl)c(C(=O)Nc2ccccc2C)n1,6.48
19,COc1ccc(/C=C(\NC(=O)c2ccc(OC)cc2)C(=O)NC(CCSC)C(=O)O)cc1 (centres unmarked),-11.7
20,COc1ccccc1C(=O)Nc1ccc(S(=O)(=O)N2CCCCC2c2cccnc2)cc1 (centres unmarked),-3.81
21,COc1ccccc1CNCc1ccc(OC)c2ccccc12,-37.8
22,Cc1cc(N2C(=O)CC(Cc3ccc(Cl)cc3)C2=O)no1 (centres unmarked),-0.604

row,SMILES,"hERG current change (%, negative = inhibition) at 10uM [%]"
1,Cc1nc(C(F)(F)F)c(C(=O)O)cc1-c1nc(-c2ccccc2)cs1,41.7
2,Cc1nc(SCN2C(=O)c3ccccc3C2=O)n[nH]1,15.2
3,CC(=O)N(c1ccc2oc(=O)sc2c1)S(=O)(=O)c1cccc2cccnc12,5.98
4,O=C(Cc1c(F)cccc1Cl)N(Cc1ccccc1)c1ccccn1,-7.4
5,COc1ccc(C(=O)Cn2c(=O)c(CCC(=O)O)nn3c4ccccc4nc23)cc1OC,5.71
6,Cc1sc2ncnc(SCC(=O)N3CCC(c4noc5ccc(F)cc45)CC3)c2c1C,6.82
7,Fc1ccc(Nc2nnc(C(F)(F)F)s2)cc1,-0.326
8,COC(=O)c1cc(-c2cccc([N+](=O)[O-])c2)c2c(=O)n(C)c(=O)n(C)c2n1,17.9
9,COc1cc(NC(C)C(=O)N2CC(C)OC(C)C2)cc(OC)c1 (centres unmarked),5.18
10,COc1ccc(CNC(=O)c2cnc3n(c2=O)CCS3)cc1,-11.2
11,CSCCC(Nc1ncnc2ccc(Br)cc12)C(=O)O.Cl (centres unmarked),16.3
12,CC(Oc1cccc(Cl)c1)C(=O)Nc1cc(=O)n(C)c(=O)n1C (centres unmarked),-16.8
13,Cc1ccccc1C(=O)NC1CCN(CC(=O)NC2CCCCC2)CC1,-5.04
14,Cc1cc(-n2c(C)cc(C(=O)CSc3nc4ccccc4c(=O)n3Cc3ccco3)c2C)no1,16.4
15,CCOCCCn1c(=NC(=O)c2ccco2)c(C(=O)OCC)cc2c(=O)n3cccc(C)c3nc21,-74
16,COCCCn1c(=O)c2ccccc2n(Cc2ccccc2C)c1=O,-13.6
17,COC(=O)c1ccc(C2C(C(=O)c3cc4ccccc4o3)=C(O)C(=O)N2c2cc(C)on2)cc1 (centres unmarked),20.7
18,COCCCN1C(=O)C(=O)/C(=C(/O)c2ccc(C)cc2)C1/C=C/c1ccccc1 (centres unmarked),-2.75
19,COc1cc(OC)c(C2CC(=O)N3CN(c4ccccc4C)CSC3=C2C#N)cc1OC (centres unmarked),1.28
20,CN(C)CCCN(C(=O)c1cccs1)c1nc2cc3c(cc2s1)OCO3.Cl,-56.8
21,CCCCn1cnc2c1c(=O)[nH]c(=O)n2CCCC,-7.83
22,CCCN1C2CCCC1CC(NC(=O)c1ccc(C(C)(C)C)cc1)C2 (centres unmarked),-37.1

row,SMILES,"hERG current change (%, negative = inhibition) at 10uM [%]"
1,Cc1cccc(C(=O)Nc2oc(-c3ccccc3)cc2C#N)c1,15.3
2,CC(C)Nc1ccc(Nc2ccccc2)cc1,-0.32
3,COc1ccccc1C(=O)NCC(=O)NC(C)c1ccc(-n2ccnc2)cc1 (centres unmarked),-66.4
4,CCN(CC)C(=O)c1ccc2c(c1[N+](=O)[O-])C(=O)c1ccccc1C2=O,6.69
5,COc1ccc(-c2csc(NC(=S)NC(=O)c3ccco3)n2)cc1Br,38.2
6,O=C1C(c2ccc(F)cc2)N(Cc2ccc3c(c2)OCO3)C(=O)CN1C1CCCCC1 (centres unmarked),-37.4
7,Cc1nc2ccc(S(=O)(=O)NCC(=O)NCCc3ccc(Cl)cc3)cc2s1,28.3
8,COc1cc([N+](=O)[O-])ccc1NC(=O)C[n+]1ccccc1.[Cl-],3.05
9,Cc1ccc(S(=O)(=O)/N=C(\CCl)N2CCOCC2)cc1,18.3
10,COc1ccccc1CNC(=O)c1ccc2c(=O)n(CC3CCCO3)c(=S)[nH]c2c1 (centres unmarked),3.61
11,CC(=O)Nc1ccc(NC(=O)COc2c(C)cc(Br)cc2C)cc1,-0.246
12,COCCn1c(=O)[nH]c2cc(C(=O)Nc3ccc(OC)c(Cl)c3)ccc2c1=O,22.7
13,CCOC(=O)c1ccc(NC(=O)c2c(O)[nH]c(=O)[nH]c2=O)cc1,12.7
14,CC(=O)NC(CC(=O)Nc1cccc(S(=O)(=O)N2CCCCC2)c1)c1ccccc1 (centres unmarked),-1.76
15,Cc1cc(NC(=O)CSc2ccc3nnc(-c4ccc(Cl)cc4)n3n2)no1,-3.45
16,CCN(CC)C(=O)c1ccc(-c2nnc(Nc3ccc(C(=O)NC)cc3)c3ccccc23)cc1,4.57
17,Cc1ccc(Cl)cc1N1CCN(S(=O)(=O)c2ccc3[nH]c(=O)c(=O)[nH]c3c2)CC1,18.5
18,CCOC(=O)c1cc2c(c(CSc3nc4ccccc4c(=O)n3Cc3ccco3)c1)OCOC2,11.1
19,COc1ccc(C2C(C(=O)Nc3ccccc3OC)=C(C)Nc3ncnn32)cc1 (centres unmarked),-14.6
20,COc1ccc(Cl)cc1NC(=O)C1CSC(c2ccncc2)=N1 (centres unmarked),-4.19
